Reference: the supplement of paper PMC10126150
Values marked as one replicate rest on one cluster of the flow cell; about a third of the high ones do not repeat.

System: ATP
Assay: switch fluorescence ratio, 500 uM ATP over buffer (Cy3 cluster intensity, sum of 5 cycles each) (fold (ratio)); higher = stronger signal-on switching upon ATP binding; sequences stand for … in TCGTCGGCAGCGTCAGATGTGTATAAGAGACAGTTTTTTTTTTTTTTTTTTTTTTTTT…TC
Settings: aptamer strand: ATP DNA aptamer (quencher-CACCTGGGGGAGTATTGCGGAGGAAGG + anchor), 100 nM annealed; ATP concentration: 500 uM; one replicate
Outline: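 Per cluster, summed Cy3 intensity from the target cycles was divided by that from the buffer cycles to give the fluorescence ratio, then averaged per switch-domain sequence. Clusters outside 100-1000 RFU were excluded. The Cy3-labelled switching-strand clusters, on a modified Illumina MiSeq flow-cell, were annealed to 100 nM quencher-labelled ATP aptamer and imaged in selection buffer, then after 15 min with 500 uM ATP at 22 °C, for five cycles with NaOH stripping and re-annealing between them.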
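Also: ATP exposure 15 min at 22 °C before imaging.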

GCCTTTCTGT
switch fluorescence ratio: 0.96

AGTTTGACCC
switch fluorescence ratio: 1.02

CTTGGGGAAG
switch fluorescence ratio: 1.02

TCATATTAGC
switch fluorescence ratio: 0.914

AAAGCACGGA
switch fluorescence ratio: 1.05

TCTCGACAAC
switch fluorescence ratio: 1.14

GAGAGCTTTA
switch fluorescence ratio: 0.999

AAGTGGGAT
switch fluorescence ratio: 1.02

CGCGTATGGG
switch fluorescence ratio: 1.04

CCAGAGAGCA
switch fluorescence ratio: 0.997

GGCTTGCCCG
switch fluorescence ratio: 0.992

CCTGACGTG
switch fluorescence ratio: 1.11

ACAAGGGTTG
switch fluorescence ratio: 1.03

AAAGGGAGC
switch fluorescence ratio: 1.02

AAACTGTGCT
switch fluorescence ratio: 0.996

GAGGACCAAC
switch fluorescence ratio: 1.08

TGCGTTCCCT
switch fluorescence ratio: 1.01

CATCCTGACT
switch fluorescence ratio: 1.31

TACCGGCGCA
switch fluorescence ratio: 1.3

TGATGTTGAT
switch fluorescence ratio: 0.977

CTTTGAAACG
switch fluorescence ratio: 1

ACGACAGTAG
switch fluorescence ratio: 1.04

CCACATAACA
switch fluorescence ratio: 1.11

AGTGATAAAT
switch fluorescence ratio: 0.994

AGTATAGCGG
switch fluorescence ratio: 0.995

TTCGCGCCGG
switch fluorescence ratio: 0.995

TCTTTAGGGG
switch fluorescence ratio: 0.953

TGCGAACAAA
switch fluorescence ratio: 1

AGGTTATCAA
switch fluorescence ratio: 1.02

TTATCAGTCG
switch fluorescence ratio: 0.971

TTCTCTAGTT
switch fluorescence ratio: 1

CGCTACAGGT
switch fluorescence ratio: 1.14

AGTACGCTTA
switch fluorescence ratio: 1.03

GAGGTCAGAT
switch fluorescence ratio: 0.977

TTTCCTTATA
switch fluorescence ratio: 1

TCGTTGGGGC
switch fluorescence ratio: 0.981

CAGGAACGGA
switch fluorescence ratio: 1

AACTCCAGGC
switch fluorescence ratio: 1.15

CCACCCAGCG
switch fluorescence ratio: 3.37

GATTATTACA
switch fluorescence ratio: 1.06

TCGTATAGAA
switch fluorescence ratio: 0.951

CACCTTTATA
switch fluorescence ratio: 1.02

ATCAGAAATA
switch fluorescence ratio: 1.02

GGTGCATATC
switch fluorescence ratio: 1.25

TTTGCCATCG
switch fluorescence ratio: 1

GAGTATCATT
switch fluorescence ratio: 1

GAGTGATCCT
switch fluorescence ratio: 1.04

ACGCCAAATA
switch fluorescence ratio: 1.31

ACTTAGGTAC
switch fluorescence ratio: 1.04

TTACGGGACT
switch fluorescence ratio: 1.22

AAGCATATAG
switch fluorescence ratio: 1.99

GGCCTACGGA
switch fluorescence ratio: 0.994

ACCGTGGCGG
switch fluorescence ratio: 0.971

CACAATAACA
switch fluorescence ratio: 1.05

TTCGCACAAG
switch fluorescence ratio: 1.04

ACTGGAGGTC
switch fluorescence ratio: 0.997

AACAGGTAGG
switch fluorescence ratio: 1.02

GTAGTTTAAG
switch fluorescence ratio: 1.02

GGTGTTGGGA
switch fluorescence ratio: 0.965

TTCTTATAGG
switch fluorescence ratio: 1

CCATTCGGGT
switch fluorescence ratio: 1.02

TACGACTTTT
switch fluorescence ratio: 0.959

AAAACCGATT
switch fluorescence ratio: 1.05

CAGGGAGAAC
switch fluorescence ratio: 1.02

GGGGGCTAGC
switch fluorescence ratio: 0.878

ATAGGCTTAG
switch fluorescence ratio: 0.952

CAGGATGACT
switch fluorescence ratio: 1.03

CAGCTGACTG
switch fluorescence ratio: 1

GCATAAATTT
switch fluorescence ratio: 0.994

TTGGTCTTCC
switch fluorescence ratio: 1.96

AGCTAAATTT
switch fluorescence ratio: 1.04

AGTCAGGGTG
switch fluorescence ratio: 1.1

ATGCCCTGTG
switch fluorescence ratio: 1.07

TCTCGGGCAG
switch fluorescence ratio: 1.28

TAGGAAAGAC
switch fluorescence ratio: 1.04

CATTAGAGCC
switch fluorescence ratio: 0.952

CGCGGTCACT
switch fluorescence ratio: 1.25

ACGGATGAGG
switch fluorescence ratio: 1.01

AGGTGGCGCC
switch fluorescence ratio: 1.01

GAATGGATAG
switch fluorescence ratio: 0.966

GGCAGAGTTT
switch fluorescence ratio: 1.01

TGAACCCATT
switch fluorescence ratio: 1.01

TGATATACAT
switch fluorescence ratio: 1.05

TAGTATAGTA
switch fluorescence ratio: 1.01

ATCGAAAATT
switch fluorescence ratio: 0.949

GCATGACTAC
switch fluorescence ratio: 1.42

GGGTCACCCA
switch fluorescence ratio: 1.06

GTATAATACG
switch fluorescence ratio: 1.01

CTTGCAAC
switch fluorescence ratio: 0.993

AGCCTGCCGC
switch fluorescence ratio: 1.09

CTAACATCCT
switch fluorescence ratio: 1.09

ACGTGGCTCG
switch fluorescence ratio: 1.02

GGTGGTGTAA
switch fluorescence ratio: 1.01

TGATGACTCT
switch fluorescence ratio: 1.01

TGGATAGTCT
switch fluorescence ratio: 1.09

CGGACGTGGT
switch fluorescence ratio: 1.08

GGTTGAAGGA
switch fluorescence ratio: 0.979

AGCCTCTGTT
switch fluorescence ratio: 0.961

ATAACTTTT
switch fluorescence ratio: 0.96

GTTAGGATAT
switch fluorescence ratio: 1

CCCGAGCGGG
switch fluorescence ratio: 0.983

GATCATATGT
switch fluorescence ratio: 1

CTACAACGGT
switch fluorescence ratio: 1.01

AGATTGGCTC
switch fluorescence ratio: 0.997

TTGACGGATC
switch fluorescence ratio: 0.991

ATAGCTACAG
switch fluorescence ratio: 1.03

AAATATGTGC
switch fluorescence ratio: 1

TGAGTCAGAT
switch fluorescence ratio: 0.958

ACTTCGATGA
switch fluorescence ratio: 1.05

CTTAGGGCAT
switch fluorescence ratio: 1

AACGGGTTGA
switch fluorescence ratio: 0.995

TGCAAAGGGA
switch fluorescence ratio: 0.957

GTAGCCCGTT
switch fluorescence ratio: 1.03

CGGTATATCC
switch fluorescence ratio: 1.01

CACGTGTGAT
switch fluorescence ratio: 1.03

TCAAGAGTCC
switch fluorescence ratio: 1

TGCAGAATTG
switch fluorescence ratio: 1

GCTTGTCGCG
switch fluorescence ratio: 0.985

TCTCATCCAT
switch fluorescence ratio: 1.02

CAGTTCGCG
switch fluorescence ratio: 0.997

CGGGTATGAA
switch fluorescence ratio: 1.04

GGTCCATTAC
switch fluorescence ratio: 1.1

ATATCAGCA
switch fluorescence ratio: 0.955

TAATATTTGC
switch fluorescence ratio: 1.04

CGGTAGCGTG
switch fluorescence ratio: 1.03

TATACGCGTC
switch fluorescence ratio: 0.978

CTAGGGGACC
switch fluorescence ratio: 1.01

ATTAACCGGT
switch fluorescence ratio: 1.09

TGAGTGCCAG
switch fluorescence ratio: 1.01

GCCCCTTTGA
switch fluorescence ratio: 1.05

CGTCAATTCA
switch fluorescence ratio: 1.17

ATACGAGGGT
switch fluorescence ratio: 1.03

AGGTCGTCC
switch fluorescence ratio: 1.03

CAGAAACTCG
switch fluorescence ratio: 0.984

CATTGTCGGG
switch fluorescence ratio: 1

AGCAAGGTCA
switch fluorescence ratio: 1.09

GACCTAGGAC
switch fluorescence ratio: 1

ATTGGGAGGC
switch fluorescence ratio: 0.998

CCGTAAGACC
switch fluorescence ratio: 1.06

ATTGAATAA
switch fluorescence ratio: 0.975

AGTGACTGCT
switch fluorescence ratio: 0.967

GTAGGCGGGT
switch fluorescence ratio: 1.04

TTCTTATAT
switch fluorescence ratio: 0.93

ATGGGGTTAT
switch fluorescence ratio: 0.995

TGCTGTATAT
switch fluorescence ratio: 0.999

AGGACGGATG
switch fluorescence ratio: 0.947

TAATGGGAAT
switch fluorescence ratio: 0.997

ACCGAAGTGT
switch fluorescence ratio: 0.969

AGAGGTTCGT
switch fluorescence ratio: 0.962

AGGAAATCCA
switch fluorescence ratio: 1

CATGAACCCT
switch fluorescence ratio: 1.11

TAATTTTATC
switch fluorescence ratio: 0.99

TGCGGAATTC
switch fluorescence ratio: 1.32
